These results are taken from ChEMBL document CHEMBL4888484, “Replenishing the malaria drug discovery pipeline: Screening and hit evaluation of the MMV Hit Generation Library 1 (HGL1) against asexual blood stage Plasmodium falciparum ,using a nano luciferase reporter read-out” (2022).

Molecules are shown by their SMILES. About 540 (0.36%) of roughly 150,000 compounds showed an effect of 50% or more. The list shows a part of the results.

The test system of this assay is Plasmodium falciparum. The assay can be described thus: Primary screen in NF54 nanoGlo assay, in single point, at 2uM, 72h; a lower Z score goes with more inhibition. The class given is functional, Erythrocyte. As to conditions: timepoint 72 hour.
Take `CN1C(=O)[C@@H]2CCC[C@H]1CN(C(=O)NCc1cc(Cl)ccc1Cl)C2`: the “% Inhibition” value is given as -13% and the Z score stood at 2.71.

On to `CCCN1C[C@@H](CNC(=O)c2cnc3c(c2)ncn3C)CC1=O`, for which the “% Inhibition” value is listed as -8% and the Z score was 1.52.

With `CCc1nccc(CN(C)[C@@H](C)c2ccncn2)n1`, the “% Inhibition” value is listed as 9% and the Z score is recorded as -0.85.

Take `Cn1cc(-c2ccc(F)cc2)cc1C(=O)N1CCCC1`: the “% Inhibition” value came to 6% and the Z score is listed as -0.98.

As to `Cc1ccccc1N1CCCN(C(=O)Cn2ncc(N3CCCCC3)cc2=O)CC1`, the “% Inhibition” value was -13% and the Z score was determined as 2.25.

As to `CC1CCC(NC(=O)N2CCC(S(C)(=O)=O)C2)c2ccccc21` (centres undefined), the “% Inhibition” value was -11% and the Z score came out at 2.17.

For `O=C(c1csc(S(=O)(=O)N2CCC(C(=O)N3CCCCCC3)CC2)c1)N1CCCCC1`, the “% Inhibition” value is -18% and the Z score is on record as 2.93.

In the case of `Cc1cccc(-c2nc(C)c(Cc3ccccc3)c(N3CCN(C(=O)Nc4cccc(C)c4C)CC3)n2)c1`, the “% Inhibition” value turned out to be 11% and the Z score is -1.64.

Take `O=C(c1ccc2c(c1)C(=O)N(c1ccccc1Cl)C2=O)c1ccc2c(c1)C(=O)N(c1ccccc1Cl)C2=O`: the “% Inhibition” value turned out to be 11% and the Z score is given as -1.39.

As for `O=C(O)c1ccccc1-c1nccn1Cc1cnn(Cc2ccccc2)c1`, the “% Inhibition” value is recorded as -8% and the Z score is 1.42.

As for `CN(Cc1ccccn1)C(=O)C1(N2CCCCC2)Cc2ccccc2C1`, the “% Inhibition” value is listed as -17% and the Z score turned out to be 2.66.

For the compound `CCc1cc2c(N3CCC4(CC3)C[C@@H]4C(=O)O)ncnc2s1`, the “% Inhibition” value is on record as -7% and the Z score is reported as 1.47.

Regarding `O=C(NC1CCCCCC1)c1nc(Cn2cnc3ccccc3c2=O)no1`, the “% Inhibition” value is -7% and the Z score turned out to be 0.86.

On to `COc1c(C)cc(NS(=O)(=O)c2ccc(-n3c(=O)c(C(C)C)c(C)n3C)cc2)cc1C`, for which the “% Inhibition” value was -9% and the Z score was 1.56.

Consider `C[C@@H](C(=O)NC1CCCC1)N1CCC(NC(=O)c2ccccc2)CC1`, for which the “% Inhibition” value was 12% and the Z score is listed as -1.65.

As for `Cc1nc(-c2ccc(Br)cc2Cl)nn1CN1CCN(c2ncccn2)CC1`, the “% Inhibition” value is -11% and the Z score is given as 1.48.

With `Cc1cc(C)n(-c2nc(CCNC(=O)c3cn(C)nn3)cs2)n1`, the “% Inhibition” value was -4% and the Z score was found to be 0.56.

For the compound `Cc1ccc(Oc2ccc(C#N)nn2)cc1F`, the “% Inhibition” value amounted to 7% and the Z score is reported as -1.24.

As for `CCN(Cc1noc(C2CCC2)n1)Cc1ccccc1C#N`, the “% Inhibition” value is -1% and the Z score is 0.12.

For `COc1ccc(CCCCNC(=O)NC2CC3CCC2O3)cc1` (centres undefined), the “% Inhibition” value was -4% and the Z score stood at 0.43.

As to `CNC(=O)c1[nH]nc2c1CN(C(=O)N[C@H]1CC(=O)N(c3ccc(F)cc3)C1)CC2`, the “% Inhibition” value is -7% and the Z score worked out at 0.79.

Turning to `Cc1cnc(CCN(C)C(=O)C2CC3CCC2C3)s1` (centres undefined), the “% Inhibition” value is reported as -2% and the Z score came to 0.17.

On to `CCC[C@H](C)N1CC2(CCN(C(=O)CCc3ccccn3)CC2)OC1=O`, for which the “% Inhibition” value is -5% and the Z score is given as 0.93.

With `O=C(CCc1ccccn1)N1CCc2cccc(F)c21`, the “% Inhibition” value is given as -5% and the Z score was 0.67.

As for `CC(=O)N1CCN(c2ncccc2CNC(=O)c2cc(Cl)c[nH]c2=O)CC1`, the “% Inhibition” value is listed as -20% and the Z score is 2.05.

As for `O=C(Nc1nnc(-c2cc3ccccc3o2)s1)N[C@H]1CC[C@@H](CO)CC1`, the “% Inhibition” value is given as -24% and the Z score worked out at 2.76.

As for `CN(C(=O)c1sc2ncccc2c1N)C1CCCCC1`, the “% Inhibition” value is on record as -1% and the Z score was 0.19.

Take `CC1=N[C@](C)(c2ccc(N)cc2)CC(=O)N1C`: the “% Inhibition” value is on record as -8% and the Z score is listed as 1.14.

With `CC(C)CS(=O)(=O)N1CCC(N2C(=O)[C@@H]3CCCN3C2=O)CC1`, the “% Inhibition” value is recorded as -10% and the Z score worked out at 0.98.

As to `CNc1ccc(C(=O)N2C[C@@H](C)N(C)[C@@H](C)C2)cn1`, the “% Inhibition” value is 14% and the Z score is recorded as -1.76.

With `CC[C@@H](CO)N(Cc1ccncc1)C(=O)c1nc2cc(C)ccn2c1F`, the “% Inhibition” value is reported as -3% and the Z score is 0.49.

For the compound `Cc1cc(NC(=O)Cn2c(-c3ccccc3Cl)csc2=O)no1`, the “% Inhibition” value was -1% and the Z score amounted to 0.07.

In the case of `N#Cc1cc(F)c(F)cc1Br`, the “% Inhibition” value worked out at 14% and the Z score was -1.64.

Regarding `O=C(NC1(c2c(F)cccc2F)COC1)[C@H]1C[C@@H]1c1ccncc1`, the “% Inhibition” value was found to be 3% and the Z score is -0.43.

For the compound `CCn1ccnc1CN[C@H](C(=O)OC)C1CC1`, the “% Inhibition” value turned out to be 1% and the Z score was -0.13.

Consider `Cc1cc(C)n2ncc(CN3CCO[C@H](c4cccnc4)C3)c2n1`, for which the “% Inhibition” value was found to be 3% and the Z score is reported as -0.6.

In the case of `CCc1cnc(CN(C)C(=O)Nc2ccc(-n3cc(C)cn3)c(F)c2)s1`, the “% Inhibition” value was -10% and the Z score came out at 1.37.

In the case of `Cc1cc(C)n(-c2ccc(CN3CCCc4ccc(S(N)(=O)=O)cc43)cc2)n1`, the “% Inhibition” value was -14% and the Z score was 2.55.

Turning to `CNC(=O)c1ccc(OC)c(CCc2c(C)n[nH]c2C)c1`, the “% Inhibition” value is given as -12% and the Z score was determined as 1.48.

With `Cc1c(C(=O)N2C3COCC2C3)sc2ncc(C(=O)N3C4COCC3C4)cc12`, the “% Inhibition” value was -1% and the Z score turned out to be 0.12.

For `CC(C)(C)OC(=O)N[C@@H](CC(=O)O)C1CCOCC1`, the “% Inhibition” value was 2% and the Z score is on record as -0.23.

Turning to `Cc1ccc(-c2cn[nH]c2[C@H]2CCCN(C(=O)C(=O)CC(C)C)C2)cc1`, the “% Inhibition” value is -9% and the Z score was found to be 1.66.

A word on the % Inhibition: it is the relative decrease from the control value, in per cent.
